First the molecules themselves.
B1: A5 (antibody, human IgG4, kappa)
heavy: QVQLVQSGGGVVQPGNSLRLSCVASGFTFSRYTIHWVRQAPGKGLEWVAVISYDGSNKYYADSVKGRFTISRDNSKNTLYLQMNSLRAEDTAVYYCARGGPTPDWGQGTLVTVSSASTKGPSVFPLAPCSRSTSESTAALGCLVKDYFPEPVTVSWNSGALTSGVHTFPAVLQSSGLYSLSSVVTVPSSSLGTKTYTCNVDHKPSNTKVDKRV[human IgG4 Fc not shown]
light: DIQMTQSPSSLSASVGDRVTITCRASQGIRNYLAWYQQKPGKVPRLLIFAASTLQSGVPSRFSGSGSGTDFTLTISSLQPEDVATYYCQKYYSAPFTFGPGTKVDIKRTVAAPSVFIFPPSDEQLKSGTASVVCLLNNFYPREAKVQWKVDNALQSGNSQESVTEQDSKDSTYSLSSTLTLSKADYEKHKVYACEVTHQGLSSPVTKSFNRGEC
notes: also called P59366
B2: A5 (IgG4SP) (antibody)
heavy: QVQLVQSGGGVVQPGNSLRLSCVASGFTFSRYTIHWVRQAPGKGLEWVAVISYDGSNKYYADSVKGRFTISRDNSKNTLYLQMNSLRAEDTAVYYCARGGPTPDWGQGTLVTVSSASTKGPSVFPLAPCSRSTSESTAALGCLVKDYFPEPVTVSWNSGALTSGVHTFPAVLQSSGLYSLSSVVTVPSSSLGTKTYTCNVDHKPSNTKVDKRV[human IgG4 Fc with S228P (EU numbers) not shown]
light: B1 light
notes: IgG4SP (S228P in the hinge, already in the heavy chain entry); also called A5SP; P62296
B3: A187 (antibody, human IgG4, kappa)
heavy: QVQLLDSGGGLVKPGGSLRLSCAASGFTFSSYGMHWVRQAPGKGLEWVAFISNDGSNKYYADSVKGRFTISRDNSKNTLYLQMNSLRAEDTAVYYCARLLRGPWNFDLWGRGTLVTVSSASTKGPSVFPLAPCSRSTSESTAALGCLVKDYFPEPVTVSWNSGALTSGVHTFPAVLQSSGLYSLSSVVTVPSSSLGTKTYTCNVDHKPSNTKVDKRV[human IgG4 Fc not shown]
light: [about 100 residues not shown][about 120 residues not shown]
notes: also called […]
B4: A187 (IgG4SP) (antibody)
heavy: QVQLLDSGGGLVKPGGSLRLSCAASGFTFSSYGMHWVRQAPGKGLEWVAFISNDGSNKYYADSVKGRFTISRDNSKNTLYLQMNSLRAEDTAVYYCARLLRGPWNFDLWGRGTLVTVSSASTKGPSVFPLAPCSRSTSESTAALGCLVKDYFPEPVTVSWNSGALTSGVHTFPAVLQSSGLYSLSSVVTVPSSSLGTKTYTCNVDHKPSNTKVDKRV[human IgG4 Fc with S228P (EU numbers) not shown]
light: [about 100 residues not shown][about 120 residues not shown]
notes: IgG4SP (S228P in the hinge, already in the heavy chain entry); also called A187SP; […]
B5: A2 (antibody, human IgG4, kappa)
heavy: QVQLQQSGPGLVKPSQTLSLTCTVSGGSISSGGYYWSWIRQHPGKGLEWIGYIYYSGSTYYNPSLKSRVTISVDTSKNQFSLKLSSVTAADTAVYYCARQRRANGYSSSWEFDYWGQGTLVTVSSASTKGPSVFPLAPCSRSTSESTAALGCLVKDYFPEPVTVSWNSGALTSGVHTFPAVLQSSGLYSLSSVVTVPSSSLGTKTYTCNVDHKPSNTKVDKRV[human IgG4 Fc not shown]
light: DIVMTQSPSSLSASVGDRVTITCRASQGISSALAWYQQKPGKAPKLLIYDASSLESGVPSRFSGSGSGTDFTLTISSLQPEDFATYYCQQFNSYPLTFGGGTKVEIKRTVAAPSVFIFPPSDEQLKSGTASVVCLLNNFYPREAKVQWKVDNALQSGNSQESVTEQDSKDSTYSLSSTLTLSKADYEKHKVYACEVTHQGLSSPVTKSFNRGEC
notes: also called P59365
B6: A2 (IgG4SP) (antibody)
heavy: QVQLQQSGPGLVKPSQTLSLTCTVSGGSISSGGYYWSWIRQHPGKGLEWIGYIYYSGSTYYNPSLKSRVTISVDTSKNQFSLKLSSVTAADTAVYYCARQRRANGYSSSWEFDYWGQGTLVTVSSASTKGPSVFPLAPCSRSTSESTAALGCLVKDYFPEPVTVSWNSGALTSGVHTFPAVLQSSGLYSLSSVVTVPSSSLGTKTYTCNVDHKPSNTKVDKRV[human IgG4 Fc with S228P (EU numbers) not shown]
light: B5 light
notes: IgG4SP (S228P in the hinge, already in the heavy chain entry); also called A2SP; P62295

The first assay addresses T1, CC1H, major antigenic region of PLA2R (human, UniProt Q13018 21-367).
T1 construct: Secreted from CHO-S cells, purified on Ni column; also called CCIh
Briefly: indirect ELISA, CC1h coated at 2 ug/mL, anti-human IgG Fc HRP. The procedure: 30 μL of CC1h (2 μg/mL, diluted with 1*PBS) was added to the reaction wells of the ELISA plate, and the plate was sealed and incubated at 4° C. overnight. The plate was washed with PBST for 3 times, and the liquid in the wells was discarded. 5% PBSM was added to block the ELISA plate at room temperature for 2 hours. The plate was washed with PBST for 3 times by adding 30 μL of Abs (diluted with 1*PBS) to each well of the ELISA plate, and the plate was incubated at room temperature for 60 min. The plate was washed with PBST for 3 times, 30 μL of anti-human IgG Fc HRP (diluted with 1% PBSM at a ratio of 1:8000) was added to each well, and incubated at room temperature for 60 min. TMB was added and the reaction was stopped with 2M blocking solution and the OD value was detected at 450 nm. Recombinant Ipilimumab (Sanyou Biopharmaceuticals Co., Ltd.) was used as a negative control. The test results were illustrated in Table 2 as well as FIG. 4 and FIG. 5.
On the technique in general: An ELISA detects its analyte on a solid surface through an enzyme-linked reagent.
For B1, the EC50 worked out at 8.81 ng/mL.

B2 gave an EC50 of 11.2 ng/mL.

On to B3, for which the EC50 came to 6.4 ng/mL. Compared with the last molecule, the EC50 is about 1.7-fold lower.

Take B4: a half-maximal response (EC50) required 11.5 ng/mL. Compared with the last molecule, the EC50 is about 1.8-fold higher.

B5 had an EC50 of 3.94 ng/mL.

B6 registered an EC50 of 5.66 ng/mL.

The next assay addresses T2, CC1H-Biotin (human, UniProt Q13018 21-367, biotin by EZ-Link Sulfo-NHS-LC-Biotin, 1.80 mol Biotin/mol protein; sites not given).
T2 construct: also called biotin-labeled CC1H
Briefly: BLI (Octet N1), CC1H-Biotin on SA sensor, antibody 76.6-8.5 nM. The method, then:
Sartorius Octet® N1 molecular interaction instrument was used, the SA sensor (Sartorius, Octet® Streptavidin (SA) Biosensor, 18-5019) was selected.
The sensor was immersed in a PBSTB buffer (0.02% Tween-20 and 0.1% BSA were added in the PBS buffer) to be pre-wetted for 10 min or longer, and loaded onto the molecular interaction instrument.
The association constant (Ka), dissociation constant (Kd), and affinity constant (KD) were calculated and illustrated in Table 5 for details.
Regarding B1, the dissociation constant Kd was determined as 0.455 nM, the koff worked out at 0.000263 s⁻¹ and the kon is 577000 M⁻¹ s⁻¹.

In turn, B2 registered a Kd of 1.56 nM, a dissociation rate constant (koff) of 0.000475 s⁻¹ and a kon of 304000 M⁻¹ s⁻¹.

B3 had a Kd of 2.04 nM, a koff of 0.000395 s⁻¹ and a kon of 194000 M⁻¹ s⁻¹.

Molecule B4 yielded a dissociation constant (Kd) of 1.36 nM, a koff of 0.000227 s⁻¹ and an association rate constant (kon) of 167000 M⁻¹ s⁻¹.

Take B5: the Kd was 0.104 nM, the koff is 7.86e-05 s⁻¹ and the kon was found to be 755000 M⁻¹ s⁻¹.

B6: the Kd is less than 0.001 nM, the off-rate (koff) is less than 1e-07 s⁻¹ and the on-rate constant (kon) stood at 872000 M⁻¹ s⁻¹.

For orientation: EC50 means the concentration at which the effect is half-maximal. Low readings indicate greater potency, high ones weaker potency. As usually defined, the Kd is the equilibrium constant for the complex coming apart. A word on the koff: it is the rate constant with which the complex falls apart. What is called kon is the second-order rate constant of association. Low values mean slow association, high ones fast association.

The values are drawn from patent US20250340652A1 (CHENGDU DI AO PHARMACEUTICAL GROUP, published 2025).
